{"source": "paper PMC4336329", "about": "(PLoS ONE, 2015)", "note": "Out of some 310,000 compounds screened, about 2,200 (0.71%) showed an effect of 50% or more. The effect is printed as a negative number. This is one part of the list.", "data": [{"molecular_target": "human ether-à-go-go-related gene (hERG) potassium channel (human, UniProt Q12809)", "sequence (Q12809 whole entry, looked up)": "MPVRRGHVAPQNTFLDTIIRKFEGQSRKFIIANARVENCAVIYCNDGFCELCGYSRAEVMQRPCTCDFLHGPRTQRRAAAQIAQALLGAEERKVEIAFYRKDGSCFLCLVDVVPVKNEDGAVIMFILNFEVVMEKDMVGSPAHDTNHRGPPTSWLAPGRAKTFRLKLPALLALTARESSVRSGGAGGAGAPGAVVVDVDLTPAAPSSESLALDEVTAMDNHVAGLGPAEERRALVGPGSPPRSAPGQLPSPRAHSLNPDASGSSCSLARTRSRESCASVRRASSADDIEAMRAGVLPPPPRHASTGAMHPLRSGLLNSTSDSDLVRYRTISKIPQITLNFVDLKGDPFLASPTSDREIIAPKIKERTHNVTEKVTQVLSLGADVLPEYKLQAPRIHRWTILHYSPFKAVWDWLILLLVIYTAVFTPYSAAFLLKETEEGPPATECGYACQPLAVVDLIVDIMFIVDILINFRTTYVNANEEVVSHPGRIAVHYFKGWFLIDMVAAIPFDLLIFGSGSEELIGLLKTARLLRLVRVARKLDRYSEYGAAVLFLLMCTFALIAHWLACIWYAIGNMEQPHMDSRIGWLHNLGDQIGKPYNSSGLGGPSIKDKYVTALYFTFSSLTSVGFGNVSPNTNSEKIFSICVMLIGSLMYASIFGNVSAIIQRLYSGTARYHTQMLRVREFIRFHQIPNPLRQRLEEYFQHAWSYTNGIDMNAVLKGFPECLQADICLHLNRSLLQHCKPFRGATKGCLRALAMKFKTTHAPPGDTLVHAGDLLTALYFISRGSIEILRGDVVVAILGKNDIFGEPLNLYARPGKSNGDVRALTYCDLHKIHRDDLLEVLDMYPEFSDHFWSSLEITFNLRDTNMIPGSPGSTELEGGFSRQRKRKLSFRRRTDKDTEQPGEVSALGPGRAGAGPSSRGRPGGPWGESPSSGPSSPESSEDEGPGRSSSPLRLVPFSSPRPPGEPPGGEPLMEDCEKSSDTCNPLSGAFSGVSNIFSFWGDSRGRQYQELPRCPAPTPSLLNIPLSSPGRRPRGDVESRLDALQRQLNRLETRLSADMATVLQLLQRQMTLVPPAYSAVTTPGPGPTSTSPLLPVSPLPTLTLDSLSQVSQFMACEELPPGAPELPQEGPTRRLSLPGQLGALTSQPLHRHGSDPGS", "assay": "primary screen, population patch clamp on CHO cells stably expressing hERG", "units": {"hERG current change (%, negative = inhibition) at 1uM": "%"}, "values": [{"smiles": "CCc1ccc(NC(=O)C2CCCN(S(=O)(=O)c3ccc4c(c3)CCCN4C(C)=O)C2)cc1", "note": "(stereo not drawn)", "hERG current change (%, negative = inhibition) at 1uM": 7.33}, {"smiles": "Cc1ccc(C(=O)C2(C)C3c4cc(Br)ccc4OC(=O)C32C(=O)c2ccco2)cc1", "note": "(stereo not drawn)", "hERG current change (%, negative = inhibition) at 1uM": 7.08}, {"smiles": "COc1ccccc1N(CC(O)CN1C(=O)NC(C)(C)C1=O)S(=O)(=O)c1ccc(C)cc1", "note": "(stereo not drawn)", "hERG current change (%, negative = inhibition) at 1uM": 5.9}, {"smiles": "CCN(CC)CCNC(=O)c1cc(-c2ccco2)nc2ccccc12.Cl", "hERG current change (%, negative = inhibition) at 1uM": -55}, {"smiles": "COc1ccc(OC)c(N/C(=N/C(=S)Nc2ccccc2)Nc2nc(C)cc(C)n2)c1", "hERG current change (%, negative = inhibition) at 1uM": 9.92}, {"smiles": "Cc1cc(=O)oc2cc(OCC(=O)OCC(=O)NC(C)C)ccc12", "hERG current change (%, negative = inhibition) at 1uM": 12.9}, {"smiles": "COc1ccc(OCC(O)CNC(=O)Nc2cccc3ccccc23)cc1", "note": "(stereo not drawn)", "hERG current change (%, negative = inhibition) at 1uM": 12.4}, {"smiles": "Cc1ccc(NN=C2C(=O)OC(C)(C)OC2=O)c(C)c1", "hERG current change (%, negative = inhibition) at 1uM": 19}, {"smiles": "CC1CCCC(NC(=O)CSc2ccc(F)cc2)C1C", "note": "(stereo not drawn)", "hERG current change (%, negative = inhibition) at 1uM": 10.7}, {"smiles": "Cc1cc(=O)[nH]c(SCc2cc(Cl)ccc2OC(F)F)n1", "hERG current change (%, negative = inhibition) at 1uM": 12.4}, {"smiles": "COc1cc(NC(=O)c2ccccc2F)ccc1NC(=O)c1ccccc1Cl", "hERG current change (%, negative = inhibition) at 1uM": 3.31}, {"smiles": "CCN(CC1COc2ccccc2O1)C(=S)NCCCN(C)C", "note": "(stereo not drawn)", "hERG current change (%, negative = inhibition) at 1uM": 0.621}, {"smiles": "O=C(NCc1ccccc1Cl)C(=O)NCC(c1ccco1)N1CCOCC1", "note": "(stereo not drawn)", "hERG current change (%, negative = inhibition) at 1uM": 1.61}, {"smiles": "Cc1ccccc1OCc1nnc(SCC(=O)NCc2ccco2)n1C", "hERG current change (%, negative = inhibition) at 1uM": 8.25}, {"smiles": "CCCCOC(=O)NCN1C(=O)C2C3C=CC(C3)C2C1=O", "note": "(stereo not drawn)", "hERG current change (%, negative = inhibition) at 1uM": 3.08}, {"smiles": "Cc1nc(NC(=O)CCC(=O)O)sc1C(=O)N(C)C", "hERG current change (%, negative = inhibition) at 1uM": 18.1}, {"smiles": "CCN(CC)c1ccc(C=Nc2cc(C)cc(C)c2)c(O)c1", "hERG current change (%, negative = inhibition) at 1uM": 15.1}, {"smiles": "O=C(CN1CCN(c2ccccn2)CC1)Nc1ccc([N+](=O)[O-])cc1C(=O)Nc1ccccc1F", "hERG current change (%, negative = inhibition) at 1uM": -11.8}, {"smiles": "CCOc1ccc(NC(=O)CCN2CCN(c3ccccc3)CC2)cc1", "hERG current change (%, negative = inhibition) at 1uM": 3.48}, {"smiles": "COc1ccc(-c2ccccc2NC(=O)C2CCCN(Cc3ccco3)C2)cc1", "note": "(stereo not drawn)", "hERG current change (%, negative = inhibition) at 1uM": -4.31}, {"smiles": "CCOC(=O)C1(CCCc2ccccc2)CCN(C(=O)C2CCCN(C(N)=O)C2)CC1", "note": "(stereo not drawn)", "hERG current change (%, negative = inhibition) at 1uM": -48.6}, {"smiles": "COc1cc(OC)cc(C(=O)NCC(=O)OCc2ccc(Cl)c(Cl)c2)c1", "hERG current change (%, negative = inhibition) at 1uM": -0.0766}, {"smiles": "COC(=O)c1c(C)[nH]c(C(=O)C(Cc2ccccc2)N(C)C)c1C", "note": "(stereo not drawn)", "hERG current change (%, negative = inhibition) at 1uM": -4.51}, {"smiles": "Cc1nc(SC(C(=O)c2ccccc2)c2ccccc2)n[nH]1", "note": "(stereo not drawn)", "hERG current change (%, negative = inhibition) at 1uM": 20.1}, {"smiles": "CCC(C(=O)NCc1ccco1)N(C(=O)CNS(=O)(=O)c1ccc(F)cc1)c1ccccc1F", "note": "(stereo not drawn)", "hERG current change (%, negative = inhibition) at 1uM": 1.54}, {"smiles": "Cc1sc2nc(C)n(/N=C/c3ccccc3O)c(=O)c2c1C", "hERG current change (%, negative = inhibition) at 1uM": -3.57}, {"smiles": "COc1ccc(CNC(=O)CSc2nc3ccc(OC)cc3[nH]2)cc1", "hERG current change (%, negative = inhibition) at 1uM": 10.3}, {"smiles": "CC(C)Cc1nnc(NC(=O)Nc2ccccc2)s1", "hERG current change (%, negative = inhibition) at 1uM": -10.1}, {"smiles": "CC(C)N1CCC(=NNC(=O)c2ccccc2[N+](=O)[O-])CC1", "hERG current change (%, negative = inhibition) at 1uM": -4.79}, {"smiles": "COc1ccc(S(=O)(=O)N2CCCCC2)cc1NC(=O)c1ccc([N+](=O)[O-])o1", "hERG current change (%, negative = inhibition) at 1uM": 12.4}, {"smiles": "CCc1c(C)nc2cc(-c3cc(OC)cc(OC)c3)nn2c1N1CCCC1", "hERG current change (%, negative = inhibition) at 1uM": 6.16}, {"smiles": "CC1C(c2ccccc2)N(C)C(c2ccccc2)CC1(O)c1ccc(F)cc1", "note": "(stereo not drawn)", "hERG current change (%, negative = inhibition) at 1uM": 8.82}, {"smiles": "COC(=O)c1ccc(NC(=O)C(=O)c2c[nH]c3ccccc23)cc1", "hERG current change (%, negative = inhibition) at 1uM": 14}, {"smiles": "O=C(CN(C1CCCCC1)S(=O)(=O)c1ccc(F)cc1)NCc1ccncc1", "hERG current change (%, negative = inhibition) at 1uM": -2.62}, {"smiles": "CN1CCc2c(sc3c2C(=O)NC(c2ccccn2)N3)C1", "note": "(stereo not drawn)", "hERG current change (%, negative = inhibition) at 1uM": 8.5}, {"smiles": "Cc1ccc2occ(/C=C/C(=O)c3ccccc3O)c(=O)c2c1", "hERG current change (%, negative = inhibition) at 1uM": 5.17}, {"smiles": "O=C(CNC(=O)c1ccccc1)OCc1cccc([N+](=O)[O-])c1", "hERG current change (%, negative = inhibition) at 1uM": 10.6}, {"smiles": "C#CCNc1cc(-c2ccccc2)nc2ncnn12", "hERG current change (%, negative = inhibition) at 1uM": 9.37}, {"smiles": "COc1ccc(C(=O)/C=C/Nc2c(C)n(C)n(-c3ccccc3)c2=O)cc1OC", "hERG current change (%, negative = inhibition) at 1uM": -5.19}, {"smiles": "CCCNC(=O)CSc1n[nH]c(=O)n1CCc1ccccc1", "hERG current change (%, negative = inhibition) at 1uM": 16.3}, {"smiles": "O=C(Nc1ccc(F)cc1)OC1CN2CCC1CC2", "note": "(stereo not drawn)", "hERG current change (%, negative = inhibition) at 1uM": -8.44}, {"smiles": "CCCCN(C)C(=O)C1CCN(Cc2ccc(OCc3ccccc3)cc2)CC1.O=C(O)C(=O)O", "hERG current change (%, negative = inhibition) at 1uM": -55.7}, {"smiles": "N#Cc1cccc(NC(=O)COC(=O)C2CCC2)c1", "hERG current change (%, negative = inhibition) at 1uM": 13}, {"smiles": "CN1C(=O)c2ccc(C(=O)Nc3ccc4c(c3)OCO4)cc2C1=O", "hERG current change (%, negative = inhibition) at 1uM": 14.2}, {"smiles": "Cc1ccc(-n2ncc3c(=O)n(CC(=O)N4CCN(c5ccccc5)CC4)cnc32)cc1", "hERG current change (%, negative = inhibition) at 1uM": -1.58}, {"smiles": "CCC(CC)COC(=O)C1=C(C)NC(=O)NC1c1ccc(OC)cc1", "note": "(stereo not drawn)", "hERG current change (%, negative = inhibition) at 1uM": 11.2}, {"smiles": "CCOc1cc(/C=N/OC(C)=O)ccc1OCc1ccccc1", "hERG current change (%, negative = inhibition) at 1uM": -0.734}, {"smiles": "COc1cccc2c1O/C(=N\\O)C(C(=O)Nc1cccc(C)c1C)C2", "note": "(stereo not drawn)", "hERG current change (%, negative = inhibition) at 1uM": 14.1}, {"smiles": "O=C(Nc1cccnc1)c1ccc(Cl)c(Cl)c1", "hERG current change (%, negative = inhibition) at 1uM": 11.5}, {"smiles": "COc1cccc(C(=O)Nc2cnc(NC(=O)c3ccco3)cc2C)c1", "hERG current change (%, negative = inhibition) at 1uM": 5.28}, {"smiles": "Nc1nonc1-n1nnc(C(=O)N/N=C/c2cccnc2)c1CSC1=NCCS1", "hERG current change (%, negative = inhibition) at 1uM": 9.35}, {"smiles": "O=S(=O)(Nc1cccnc1)c1cccc(Cl)c1", "hERG current change (%, negative = inhibition) at 1uM": -0.153}, {"smiles": "C[C@]1(C(=O)NCCCNc2ncc(C(F)(F)F)cc2Cl)C=C[C@@H](Cc2ccccc2)N1C(=O)c1ccccc1", "hERG current change (%, negative = inhibition) at 1uM": 10.8}, {"smiles": "CCOC(CCn1ccc(O)c(Cc2ccc(Cl)cc2)c1=O)OCC", "hERG current change (%, negative = inhibition) at 1uM": 14.9}, {"smiles": "O=C(CSc1nnc(CNC(=O)c2cccs2)o1)c1ccc(Cl)cc1", "hERG current change (%, negative = inhibition) at 1uM": 9.54}, {"smiles": "CCCOc1ccc(C(=O)NCc2ccco2)cc1", "hERG current change (%, negative = inhibition) at 1uM": 17.6}, {"smiles": "O=C(O)CSc1nnc(-c2ccncc2)n1Cc1ccccc1", "hERG current change (%, negative = inhibition) at 1uM": 11.7}]}]}
